Experimental data published in patent publication US20060270596A1 (CENTRE NATIONAL DE LA RECHERCHE SCIENTIFIQUE CNRS, published 2006).

Columns and labels:
[1] = target: T1, GST-THAP2 133-228 (chemokine-binding domain of THAP2) (human, UniProt Q9H0W7 133-228); assay: GST pull-down: in vitro translated 35S-labelled protein on the GST fusion immobilised on glutathione sepharose, SDS-PAGE, fluorography
T1 construct: Immobilized on glutathione sepharose; not shown: glutathione S-transferase encoded by vector pGEX2T (Amersham Biosciences)

[2] = target: T2, GST (glutathione S-transferase) control protein (UniProt P08515 = GST); assay: GST pull-down, negative control: in vitro translated 35S-labelled chemokine or cytokine on GST alone immobilised on glutathione sepharose, SDS-PAGE, fluorography
T2 construct: Negative control in GST pull-down assays; also called GST beads; GST alone

- binding result [1]: no binding
- binding result [2]: no binding
B1: human chemokine IP10/CXCL10, mature form ([…]) (ligand)
chain: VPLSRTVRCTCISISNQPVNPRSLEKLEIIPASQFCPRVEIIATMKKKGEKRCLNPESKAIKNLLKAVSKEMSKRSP
notes: Residues are printed against GenBank NM-001565
